In all, about 310,000 compounds went through this assay and about 2,200 (0.71%) showed an effect of 50% or more. The effect is printed as a negative number. This is one part of the list.
molecular target: human ether-à-go-go-related gene (hERG) potassium channel (human, UniProt Q12809); experiment: primary screen, population patch clamp on CHO cells stably expressing hERG
Sequence (Q12809 whole entry, looked up): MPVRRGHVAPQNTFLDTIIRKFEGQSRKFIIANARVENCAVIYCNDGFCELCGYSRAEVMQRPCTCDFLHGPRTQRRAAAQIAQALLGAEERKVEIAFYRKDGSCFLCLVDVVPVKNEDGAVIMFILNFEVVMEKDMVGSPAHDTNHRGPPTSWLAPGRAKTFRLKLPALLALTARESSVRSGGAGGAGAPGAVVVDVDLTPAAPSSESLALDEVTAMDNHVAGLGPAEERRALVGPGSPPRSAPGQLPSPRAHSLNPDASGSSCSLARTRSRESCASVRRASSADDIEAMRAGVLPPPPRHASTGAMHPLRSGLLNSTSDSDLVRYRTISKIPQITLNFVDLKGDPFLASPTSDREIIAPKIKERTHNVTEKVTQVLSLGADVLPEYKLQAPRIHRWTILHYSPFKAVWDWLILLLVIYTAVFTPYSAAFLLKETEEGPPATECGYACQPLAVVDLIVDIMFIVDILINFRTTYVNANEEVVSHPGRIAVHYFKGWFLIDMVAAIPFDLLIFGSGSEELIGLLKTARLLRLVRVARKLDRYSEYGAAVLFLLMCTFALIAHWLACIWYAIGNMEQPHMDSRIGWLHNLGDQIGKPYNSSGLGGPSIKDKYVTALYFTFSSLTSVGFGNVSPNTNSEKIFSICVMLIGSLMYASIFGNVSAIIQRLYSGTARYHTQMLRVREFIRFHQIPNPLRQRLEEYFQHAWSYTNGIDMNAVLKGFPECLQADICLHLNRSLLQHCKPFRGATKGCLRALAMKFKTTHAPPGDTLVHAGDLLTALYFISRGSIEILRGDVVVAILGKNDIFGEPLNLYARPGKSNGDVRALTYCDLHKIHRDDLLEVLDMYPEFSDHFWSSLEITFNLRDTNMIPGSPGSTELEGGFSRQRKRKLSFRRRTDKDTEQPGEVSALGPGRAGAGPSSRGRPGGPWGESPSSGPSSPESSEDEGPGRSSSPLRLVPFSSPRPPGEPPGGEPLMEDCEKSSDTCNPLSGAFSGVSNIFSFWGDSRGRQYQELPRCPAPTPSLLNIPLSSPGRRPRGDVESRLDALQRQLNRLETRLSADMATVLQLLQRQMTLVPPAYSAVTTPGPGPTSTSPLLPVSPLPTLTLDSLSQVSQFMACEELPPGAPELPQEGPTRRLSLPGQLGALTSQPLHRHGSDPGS

Structure (SMILES) | hERG current change (%, negative = inhibition) at 1uM
NC(=NC(=O)c1ccc(OCC(F)(F)F)nc1)c1ccccc1 | 3.03%
C/C(=N\Nc1ncc(Cl)cc1Cl)c1ccc(N2CCOCC2)cc1 | 2.74%
COc1cccc(/C=C2\SC(=S)N(CCCC(=O)Nc3cc(C)on3)C2=O)c1 | 15.6%
O=C(NC(=S)NCc1cccnc1)c1cccc2ccccc12 | 14.3%
CCc1ccc(CNC(=O)C2CCC(=O)N2C2CCCCC2)cc1 (stereo not shown) | -12.5%
O=S(=O)(c1cc(-c2nnc(-c3ccc(Br)cc3)o2)ccc1Br)N1CCCCCC1 | 6.17%
COc1ccccc1Oc1c(C)oc2c(CN3CCN(C)CC3)c(O)ccc2c1=O | 3.11%
O=C(O)CNC(=S)N(Cc1ccccc1)Cc1ccccc1F | 18%
O=C(NCc1ccc(Cl)cc1)c1ccc(-n2cccn2)nc1 | 17.2%
Cl.NCCc1nnc(SCc2ccccc2)o1 | 13.8%
Cc1ccc(/C=N/NC(=O)c2cccc3ccccc23)o1 | 9.89%
CC(C)(CO)NCc1ccccc1OCC(=O)Nc1ccccc1 | -3.77%
C=C(c1ccccc1)P(=O)(O)O | 18%
O=C(N/N=C\c1cccnc1)c1cc(-c2ccccc2)nc2c(Cl)cccc12 | 13.3%
CCN(c1cccc(C(F)(F)F)c1)S(=O)(=O)c1ccc2c(c1)CCN2C(=O)C1CC1 | 2.06%
CCOC(=O)C(C(=O)OCC)C1N=C(N)N=C2Oc3ccccc3N21 (stereo not shown) | 20.6%
O=C(Cc1ccsc1)N1CCN(S(=O)(=O)c2ccccc2F)CC1 | -5.39%
NS(=O)(=O)c1ccc(F)c(C(=O)O)c1 | 12.5%
Cc1sc(N)nc1C12CC3CC(CC(C3)C1)C2 | 15.3%
CN(C)c1ccc(/C(=N\O)C(F)(F)F)cc1 | 23.6%

Structure (SMILES) | hERG current change (%, negative = inhibition) at 1uM
COc1ccc(NC(=O)CCN2CCOCC2)c(OC)c1 | 2.36%
Cc1cc(O)c(C=Nc2cccc(Cl)c2)c(=O)o1 | 3.75%
O=C1CC(c2ccccc2Cl)c2c(sc3c(=O)[nH]c(CCl)nc23)N1 (stereo not shown) | 8.68%
Cc1ccc(N2C(=O)C(Cc3ccc(O)cc3)NC2=S)cc1C (stereo not shown) | 2%
N/C(=N\OC(=O)c1ccccc1)c1ccn[nH]1 | 6.14%
COc1ccc(CC(=O)Nc2ccc3nc(SC)sc3c2)cc1OC | 14.4%
CC(C)c1ccc(OCC(=O)N(c2ccccn2)C2CCCCC2)cc1 | 5.22%
CCOC(=O)C1(Cc2cccc(OC)c2)CCN(C2CCOCC2)CC1 | -16.3%
Cc1ccsc1C1Nc2ccccc2C(=O)N1O (stereo not shown) | 6.02%
Nc1ccc(Cc2nc3cc4ccccc4cc3[nH]2)cc1 | 6.8%
Cc1cc2cc(CN(Cc3ccco3)S(=O)(=O)c3c(C)ccc4nsnc34)c(=O)[nH]c2cc1C | 5.26%
COc1ccc(NS(=O)(=O)c2cccc(C(=O)N/N=C(\C)c3ccc(-n4ccnc4)cc3)c2)cc1 | 12.8%
CCOC(=O)N1CCN(C(=O)CSCC(=O)Nc2nc(-c3ccccc3)cs2)CC1 | -15.6%
Cc1cccc([C@@H]2[C@@H]3C(=O)N(Cc4ccccc4)C(=O)[C@@H]3[C@]3(C)C(=O)N(c4cccc(F)c4)C(=O)N23)c1 | 11.5%
COc1ccccc1C(=O)Nc1nnc(-c2ccco2)s1 | 13.9%
CCOC(=O)c1sc2nccc(N(C)C)c2c1N=CN(C)C | -1.29%
O=C(Nc1ccccc1C(=O)N1CCCCC1)c1cc(F)c(F)cc1Cl | 9.94%
C/C=C/C1=CC(=O)C[C@H](c2ccc(F)cc2)C1 | -6.97%
Fc1cc(F)nc(NCc2ccccc2)n1 | 3.57%
O=C(CSc1nnc(Cc2ccccc2)n1Cc1ccccc1)NCc1ccco1 | -7.28%

Structure (SMILES) | hERG current change (%, negative = inhibition) at 1uM
CCOc1cccc(CNCCNC(=O)c2nonc2N)c1.Cl | -3.46%
CCCn1c(SCC(=O)Nc2ccccc2N2CCOCC2)nc2c1c(=O)n(C)c(=O)n2C | 0.825%
COc1ccc(N(C(=O)Cn2nnc3ccccc32)C(C(=O)NCc2ccco2)c2ccncc2)cc1 (stereo not shown) | 6.1%
O=C(NC1CCCC1)C1CCCN(C(=O)Nc2ccccc2)C1 (stereo not shown) | 12.4%
Cc1cc(=O)oc2cc(OCC(=O)Nc3cccc(S(=O)(=O)N(C)C)c3)ccc12 | 9.74%
Cl.FC(F)(F)c1cccc(C2NCc3ccccc3-n3cccc32)c1 (stereo not shown) | 13.7%
COc1ccc(OCC(=O)NNC(=O)c2ccccc2OCc2c(C)noc2C)cc1 | 4.76%
COc1ccccc1C/C(N)=N/OC(=O)c1cccc([N+](=O)[O-])c1C | 1.57%
CN1C(=O)/C(=C/c2ccc(O)c([N+](=O)[O-])c2)NC1=S | 12.1%
COc1c(F)c(F)c(C(=O)Nc2ccc(NC(=O)Cc3ccccc3)cc2)c(F)c1F | 25.2%
CP(=O)(O)CN1CCCCC1 | 4.45%
CCOC(=O)Cc1csc(NC(=O)/C=C\c2ccccc2)n1 | 3.99%
CN(CC(=O)Nc1ccccc1Cl)C1CCS(=O)(=O)C1 (stereo not shown) | -0.783%
Cn1c(=O)c2cn3c(c2n(C)c1=O)C(c1ccccc1)CC(c1ccccc1)=N3 (stereo not shown) | 3.12%
COC(=O)C1(C(F)(F)F)C2C=CC(C2)N1S(=O)(=O)c1ccc(C)cc1 (stereo not shown) | 15.3%
CCOc1ccc(N(CC(=O)NCCSCc2ccco2)S(=O)(=O)c2ccc(F)cc2)cc1 | 1.39%
CC(C)OC(=O)c1cccc2c1C(=O)c1ccccc1-2 | 17.4%
COc1ccc(N2C(=O)[C@@H]3[C@H](C2=O)[C@H](C(=O)c2ccc(OC(C)=O)cc2)N2N=CC=C[C@@H]32)cc1 | 7.92%

— article PMC4336329 (PLoS ONE, 2015)
